About 14,000 (4.5%) of roughly 310,000 compounds showed an effect of 50% or more. Effects have a minus sign here. This is one part of the list.
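Note: peak tail current of the secondary pulse compared with the same well before compound.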

Chain of human ether-à-go-go-related gene (hERG) potassium channel (Q12809 whole entry, looked up): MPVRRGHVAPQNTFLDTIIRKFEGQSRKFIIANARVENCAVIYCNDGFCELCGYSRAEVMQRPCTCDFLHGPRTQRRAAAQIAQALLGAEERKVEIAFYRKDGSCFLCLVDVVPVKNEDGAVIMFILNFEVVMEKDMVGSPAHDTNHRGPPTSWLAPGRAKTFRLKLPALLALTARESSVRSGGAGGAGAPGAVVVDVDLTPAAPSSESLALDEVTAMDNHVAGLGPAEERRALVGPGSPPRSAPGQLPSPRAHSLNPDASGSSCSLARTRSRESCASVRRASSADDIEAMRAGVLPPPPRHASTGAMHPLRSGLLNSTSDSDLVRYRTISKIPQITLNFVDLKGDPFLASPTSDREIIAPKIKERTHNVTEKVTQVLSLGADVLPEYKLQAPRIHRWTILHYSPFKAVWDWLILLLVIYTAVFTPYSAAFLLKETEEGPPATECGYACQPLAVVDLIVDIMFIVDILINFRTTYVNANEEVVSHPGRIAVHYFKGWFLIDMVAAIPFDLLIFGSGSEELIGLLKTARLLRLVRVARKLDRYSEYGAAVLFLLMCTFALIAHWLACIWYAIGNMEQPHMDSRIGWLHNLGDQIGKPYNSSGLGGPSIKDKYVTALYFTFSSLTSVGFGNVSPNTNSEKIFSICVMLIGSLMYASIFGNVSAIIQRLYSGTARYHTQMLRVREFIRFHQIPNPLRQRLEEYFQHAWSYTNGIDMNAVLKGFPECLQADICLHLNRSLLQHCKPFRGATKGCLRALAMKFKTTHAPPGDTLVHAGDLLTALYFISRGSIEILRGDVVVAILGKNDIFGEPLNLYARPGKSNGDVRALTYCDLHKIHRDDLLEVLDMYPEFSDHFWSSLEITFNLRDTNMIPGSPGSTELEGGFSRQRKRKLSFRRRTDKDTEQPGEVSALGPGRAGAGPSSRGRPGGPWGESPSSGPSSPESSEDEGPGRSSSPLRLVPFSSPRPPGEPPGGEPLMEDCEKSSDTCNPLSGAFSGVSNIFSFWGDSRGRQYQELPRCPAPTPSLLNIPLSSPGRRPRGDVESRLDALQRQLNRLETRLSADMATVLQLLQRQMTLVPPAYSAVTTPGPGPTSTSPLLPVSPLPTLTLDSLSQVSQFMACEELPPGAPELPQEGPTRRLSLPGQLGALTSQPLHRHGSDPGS

This assay concerns the target human ether-à-go-go-related gene (hERG) potassium channel (human, UniProt Q12809). As to the kind of experiment: primary screen, population patch clamp on CHO cells stably expressing hERG.
`COc1cc(C(=O)NCc2nnc(SCC(=O)N3CCCC3)o2)cc(OC)c1OC`: the “hERG current change (%, negative = inhibition) at 10uM” value stood at 12.5%.
The result for `O=C(O)C(=O)O.c1ccc(-c2ccccc2OCCCN2CCCCCC2)cc1` reads -80.1%; that for `Cc1ccc(C(=O)/C=C/Nc2ccc(S(=O)(=O)Nc3onc(C)c3C)cc2)cc1`, -5.96%.
The result for `Brc1cnc(N2CCCCC2)nc1N1CCOCC1` reads -6.45%; that for `COc1ccc(OC)c(C(=O)c2c(C)oc3cc(Br)c(O)c(CN(C)C)c23)c1.Cl.O`, -33.4%.
As for `Cc1cc(C)cc(NC(=O)CN(C)S(=O)(=O)c2cnc[nH]2)c1`, the “hERG current change (%, negative = inhibition) at 10uM” value was found to be 12.6%.
The value for `CC(=O)c1c(C)[nH]c(C(=O)OCC(=O)N2CC(=O)Nc3ccccc32)c1C` was 5.94%; that for `COc1ccc(NC(=O)C23CC4CC(C2)CC(n2cnc(Br)n2)(C4)C3)cc1Cl` was 3.08%.
Regarding `COc1ccc(C(=O)NCC(=O)NCC(c2ccco2)N(C)C)cc1OC` (stereo not drawn), the “hERG current change (%, negative = inhibition) at 10uM” value is reported as -9.54%.
The result for `CCOC(=O)c1cc(NC(=O)N(CC)CC)c(C)nc1C` reads 5.59%; that for `Cc1ccc(F)cc1CNC(=O)C1CCC(=O)N(CC2CCCCC2)C1` (stereo not drawn), 3.34%; that for `Cc1ccc(C)c(S(=O)(=O)N/N=C2/CCCc3ccccc32)c1`, 10.6%.
In the case of `COc1ccccc1NC(=O)Nc1ccccc1C(N)=O`, the “hERG current change (%, negative = inhibition) at 10uM” value is given as 0.636%.
The value for `O=C(NCCC1=CCCCC1)c1coc(=O)c(Br)c1` was -4.02%; that for `CCCCCCN1CC(O)=C(c2ccccc2)C1=N` was -7.31%; that for `Cc1c(C(=O)NCC(c2ccco2)N(C)C)oc2c(Cl)cccc12` (stereo not drawn) was -36.9%.
For the compound `CCCCNC(=O)c1cc2c(=O)n3cccc(C)c3nc2n(Cc2ccncc2)c1=N`, the “hERG current change (%, negative = inhibition) at 10uM” value is -75.1%.
The result for `CN(C(=O)CSc1ncccn1)C1CCS(=O)(=O)C1` (stereo not drawn) reads 10.8%.
The result for `NC(=O)CN1CCOCCOCCOCCOCCOCC1` reads 16.3%.
In the case of `O=C(CCCCn1c(=O)[nH]c2ccsc2c1=O)NCc1ccc2c(c1)OCO2`, the “hERG current change (%, negative = inhibition) at 10uM” value is recorded as -7.96%.
The value for `COc1ccc(-c2[nH]ncc2CN2CCC(OCc3ccccc3)CC2)c(F)c1` was -80.7%; that for `CCC(CC)C(=O)Nc1cc(C)cc(C)c1` was 0.735%.
The value for `C(=C\c1cc(/C=C/c2ccccc2)ncn1)/c1ccccc1` was 20.5%.
The result for `O=C(O)CCC(=O)NNC(=O)COc1ccc(Cl)cc1Cl` reads 26.4%; that for `COc1ccc(F)cc1S(=O)(=O)NC1CCCC1`, 2.41%; that for `COCc1cc(C)nc(Nc2ccccc2OC)c1C#N`, 11.5%.
Take `CCOC(=O)c1ccccc1N/C=C/C(=O)c1cccs1`: the “hERG current change (%, negative = inhibition) at 10uM” value is -14.9%.
With `Cn1c(=O)cc(SCC(=O)NCC2CCCO2)c2ccc(Cl)cc21` (stereo not drawn), the “hERG current change (%, negative = inhibition) at 10uM” value is given as -7.37%.
The value for `COc1ccccc1CN1C(=O)[C@@H]2Cc3c([nH]c4ccccc34)C(C)(C)N2C1=O` was 5.96%.
For `COc1cc(S(=O)(=O)NC2CCCCC2C)ccc1Cl` (stereo not drawn), the “hERG current change (%, negative = inhibition) at 10uM” value is on record as -3.62%.
`COc1cccc(NC(=O)CSc2nnc(NC(=O)C3CCC3)s2)c1`: the “hERG current change (%, negative = inhibition) at 10uM” value was 20.2%.
With `O=[N+]([O-])c1cc(/C=N/N2CCN(Cc3ccccc3)CC2)ccc1Cl`, the “hERG current change (%, negative = inhibition) at 10uM” value worked out at 6.96%.
For `COc1ccc2c(C)cc3nnnn3c2c1`, the “hERG current change (%, negative = inhibition) at 10uM” value turned out to be 4.98%.
Take `COCCN(C(=S)Nc1ccc(C)cc1C)C(C)c1ccco1` (stereo not drawn): the “hERG current change (%, negative = inhibition) at 10uM” value is listed as -12.5%.
For the compound `CCCn1c(SCC(=O)Nc2ccccc2Cl)n[nH]c1=O`, the “hERG current change (%, negative = inhibition) at 10uM” value came out at 0.117%.
As for `CCOC(=O)c1cc(-c2ccccc2)sc1NC(=O)c1cc(OC)c(OC)c(OC)c1`, the “hERG current change (%, negative = inhibition) at 10uM” value stood at 3.59%.
In the case of `Cc1c(C(=O)Nc2ccc(S(=O)(=O)N(C)C3CCN(C)CC3)cc2)oc2ccccc12`, the “hERG current change (%, negative = inhibition) at 10uM” value is given as -29.9%.
The value for `COc1cccc(C2=NOC(C(=O)NCCN3CCOCC3)C2)c1` (stereo not drawn) was 11.8%; that for `C=CCC(=O)N1CCCC(CNC(=O)c2ccc(-c3ccccc3)cc2)C1` (stereo not drawn) was -26.3%.
As for `CC(=O)Nc1ccc(-c2nn[nH]n2)cc1Cl`, the “hERG current change (%, negative = inhibition) at 10uM” value is on record as 15.7%.
The result for `Cc1ccc2nc(-c3ccccc3)cc(C(=O)O)c2c1` reads 11.4%.
For the compound `O=C(CN1C(=O)/C(=C/c2ccccc2F)Sc2ccccc21)NCCCN1CCOCC1`, the “hERG current change (%, negative = inhibition) at 10uM” value is given as -46.9%.
The result for `Cc1ccc(Cn2nnc3c(=O)[nH]c(C4CCN(S(=O)(=O)Cc5ccccc5)CC4)nc32)cc1` reads -3.33%.
The value for `Cc1cccc(-n2c(SCC(N)=O)nc3c(c2=O)C2(CCCCC2)Cc2ccccc2-3)c1` was -1.4%.
For `CC(=O)CC(C)(C)Nc1nc2cc([N+](=O)[O-])ccc2o1`, the “hERG current change (%, negative = inhibition) at 10uM” value turned out to be 0.0382%.
The result for `O=C(Nc1ccccc1Cc1ccccc1)c1oc2ccccc2c1COc1ccccc1` reads 13.6%.
The result for `NS(=O)(=O)Cc1noc2ccccc12` reads 8.51%; that for `Cn1cc([N+](=O)[O-])c(C(=O)Nc2ccc3nc(-c4ccccc4)[nH]c3c2)n1`, -8.74%; that for `CCNC(=S)N/N=C(\C)c1cccc(C(F)(F)F)c1`, 26.7%.
The value for `CCc1ccc(/C=C(/C#N)C(N)=S)cc1` was 19.1%.
As to `O=c1cc(CO)occ1OCc1ccccc1`, the “hERG current change (%, negative = inhibition) at 10uM” value was -1.9%.
The value for `CC(=O)N1CCOc2cc(S(=O)(=O)NC(C)c3ccccc3)c(Cl)cc21` (stereo not drawn) was 3.88%.
The value for `CC(=O)NC12CC3CC(C1)CC(C(=O)N(C)CC(=O)Nc1cccc(F)c1)(C3)C2` was -7.98%; that for `CC(C)c1ccc(NC(=O)N2CCOCC2)cc1` was 14.2%; that for `COc1cc(/C=N/NC(=O)C(=O)Nc2ccccn2)ccc1O` was -22.4%.
For the compound `CCOC(=O)C1CCc2nc3ccccc3c(=O)n21` (stereo not drawn), the “hERG current change (%, negative = inhibition) at 10uM” value is -13.6%.
The result for `COc1ccc(C(=O)NCCN2CCOCC2)cc1OC` reads 4.75%; that for `Cc1ccnc(NC(NC(=O)C(C)C)(C(F)(F)F)C(F)(F)F)c1`, -0.0745%; that for `CCCOc1ccc(C(=O)CCNc2cccc(Cl)c2)cc1`, 31.5%.
The result for `COc1ccc(/C=N/N=C2\SC(CC(=O)O)C(=O)N2c2ccccc2)cc1` (stereo not drawn) reads 22.8%; that for `CCC(C)NC(=O)CC(c1ccc(OC)cc1)n1cccc1` (stereo not drawn), 9.54%.
The result for `O=C(Nc1ccc(F)cc1F)c1cc(-c2ccco2)nc2ccccc12` reads -13%; that for `CCOc1ccc(-c2cc(N)n(S(=O)(=O)c3ccc(OC)c(OC)c3)n2)cc1`, 8.48%; that for `CC1CN(c2ccc([N+](=O)[O-])cc2C(=O)N2CCOCC2)CC(C)N1` (stereo not drawn), -9.17%.
As for `Cc1ccc(-c2nnn3c2nc(NCCc2ccc(S(N)(=O)=O)cc2)c2ccccc23)cc1`, the “hERG current change (%, negative = inhibition) at 10uM” value was found to be 13.9%.
The value for `N#Cc1cccc(NC(=O)c2nc(-c3ccccc3)n(-c3ccccc3)n2)c1` was -23.3%.
The value for `CCN(CC)CCN(C(=O)c1ccc2c(c1)CCCC2)c1nc2ccc(OC)cc2s1.Cl` was -5.4%; that for `O=C(OCCN=C1NS(=O)(=O)c2ccccc21)C1CC(=O)N(c2ccc(Cl)cc2)C1` (stereo not drawn) was -7.04%.
Consider `COc1ccc(CCNC(=O)C(C)c2ccc([N+](=O)[O-])cc2)cc1` (stereo not drawn), for which the “hERG current change (%, negative = inhibition) at 10uM” value was -32.8%.
The result for `COc1cc(/C=C/C(=O)O)cc(OC)c1OC` reads 3.87%; that for `O=C(Nc1nc(-c2ccc(F)cc2)cs1)C1CCCO1` (stereo not drawn), -6.67%; that for `Cc1nn(CC(=O)N2CCCCCC2)c(=O)c2cc3occc3n12`, 14.6%.
As for `CC(=O)Nc1ccc(S(=O)(=O)Nc2nccc(/C=C/c3ccc(Cl)cc3)n2)cc1`, the “hERG current change (%, negative = inhibition) at 10uM” value is -0.102%.
The result for `O=C(Cn1c(SCC(=O)N2CCc3ccccc3C2)nc2ccccc21)NC1CCCC1` reads -26.4%.
As for `C=CCNC(=O)c1onc(CSc2cc(C)cc(C)c2)c1C(=O)O`, the “hERG current change (%, negative = inhibition) at 10uM” value is 8.98%.
`COc1cc2[nH]c(=S)nc(NCc3cccs3)c2cc1OC`: the “hERG current change (%, negative = inhibition) at 10uM” value stood at 10.5%.
The result for `CC(C)C[C@H](NC(=O)C1CC(=O)N(c2ccc3c(c2)OCO3)C1)C(=O)NC1CCCCC1` (stereo partly drawn) reads 22.4%; that for `CCc1cc2c(cc(C(=O)O)n2C)s1`, 14.6%; that for `O=S(=O)(O/N=C1\CCCc2ccccc21)c1ccccc1`, 7.59%.
Consider `O=C1NC(=O)/C(=C\c2ccc(Oc3cnccn3)cc2)S1`, for which the “hERG current change (%, negative = inhibition) at 10uM” value was 2.08%.
The result for `Cc1csc2ncc(C(=O)N3CCCc4ccccc43)c(=O)n12` reads -0.038%; that for `COC(=O)/C(=N/Nc1ccccc1Cl)Sc1nnc(C(O)c2ccccc2)n1-c1ccccc1` (stereo not drawn), 16.7%.
The value for `CCOc1ccc(NC(=O)c2ccc(S(=O)(=O)N(C)C)cc2)cc1` was 16.4%.
For the compound `COCCNC(=S)N(CCN(C)C)Cc1cc2cc3c(cc2[nH]c1=O)OCO3`, the “hERG current change (%, negative = inhibition) at 10uM” value amounted to 14.9%.
Take `COc1ccc([N+](=O)[O-])cc1NC(=O)/C=C/C(=O)O`: the “hERG current change (%, negative = inhibition) at 10uM” value is on record as 6.18%.
`Cc1ccc(S(=O)(=O)NC(CC(=O)NCc2ccco2)c2ccco2)cc1` (stereo not drawn): the “hERG current change (%, negative = inhibition) at 10uM” value is given as -0.749%.
The result for `Cc1nc(SCc2ccc(C#N)cc2)n[nH]1` reads 23.7%.
In the case of `CCCOc1ccc(C(=O)OCC(=O)c2c(N)n(C)c(=O)n(C)c2=O)cc1OCC`, the “hERG current change (%, negative = inhibition) at 10uM” value was 7.65%.
The value for `CCc1nnc(NS(=O)(=O)c2ccc(NCc3cc(Cl)ccc3O)cc2)s1` was 8.78%; that for `O=C(CNC(c1ccccc1)c1ccccc1)NCc1ccccc1Cl` was -2.59%.

The values above are taken from publication PMC4336329 (PLoS ONE, 2015).
